# Data from the supplement of paper PMC7826260.
# The other results are listed elsewhere or left out. Cleavage of a single-stranded DNA pool by Rep nickase domains was read by sequencing (3 µM enzyme, 1 h, 37 °C); shown is the middle of each 90-letter strand. The score is log2 (uncut reads / reads without enzyme); uncut sequences lie near 0, cut ones below; no hit call is given. Shares of all reads are compared; where an enzyme cuts many sequences, the uncut ones exceed 0.
# Key:
# Experiment in all cases: uncleaved DNA left, log2 of reads against the no-enzyme library (log2 ratio); higher = less cleavage (more negative = more Rep cleavage of the k-mer); sequences stand for … in CTCGTCCG…ACCGGAGA
# [1] = test system: T1, Rep nickase domain of Muscovy duck circovirus
# T1 sequence (protein, residues 1-111, tag omitted): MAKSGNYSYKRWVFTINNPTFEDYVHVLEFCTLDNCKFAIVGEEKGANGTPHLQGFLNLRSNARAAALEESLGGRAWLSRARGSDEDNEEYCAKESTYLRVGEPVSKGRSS
# Protocol: (§1)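 A pool of 90-nt single-stranded DNAs with seven random bases just before the constant AC of the nick site (name = the seven bases) was cut by 3 µM recombinant His6-SUMO-tagged Rep nickase domain (300 nM DNA, 50 mM HEPES pH 8.0, 50 mM NaCl, 1 mM MnCl2, 1 h, 37 °C, three replicates). Uncut DNA was amplified and sequenced.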
# [2] = test system: T2, Rep nickase domain of banana bunchy top virus
# T2 sequence (protein, residues 1-94, tag omitted): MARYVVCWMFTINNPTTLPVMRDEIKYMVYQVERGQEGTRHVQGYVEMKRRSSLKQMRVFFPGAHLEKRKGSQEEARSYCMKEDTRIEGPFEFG
# Protocol: as §1
# [3] = test system: T3, Rep nickase domain of cabbage leaf curl virus
# T3 sequence (protein, residues 1-116, tag omitted): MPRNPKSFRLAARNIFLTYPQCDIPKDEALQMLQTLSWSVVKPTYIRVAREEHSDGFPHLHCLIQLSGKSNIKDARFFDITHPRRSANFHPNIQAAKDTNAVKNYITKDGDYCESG
# Protocol: as §1
# [4] = test system: T4, Rep nickase domain of chickpea chlorotic dwarf virus
# T4 sequence (protein, residues 1-124, tag omitted): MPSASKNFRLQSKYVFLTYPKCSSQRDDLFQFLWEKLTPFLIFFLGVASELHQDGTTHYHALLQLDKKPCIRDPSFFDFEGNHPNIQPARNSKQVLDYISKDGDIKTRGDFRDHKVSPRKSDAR
# Protocol: as §1
# [5] = test system: T5, Rep nickase domain of faba bean necrotic yellows virus
# T5 sequence (protein, residues 1-98, tag omitted): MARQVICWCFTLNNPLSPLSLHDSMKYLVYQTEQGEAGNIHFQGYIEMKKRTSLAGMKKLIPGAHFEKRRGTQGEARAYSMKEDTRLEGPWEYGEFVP
# Protocol: as §1
# [6] = test system: T6, Rep nickase domain of maize striate mosaic virus
# T6 sequence (protein, residues 1-117, tag omitted): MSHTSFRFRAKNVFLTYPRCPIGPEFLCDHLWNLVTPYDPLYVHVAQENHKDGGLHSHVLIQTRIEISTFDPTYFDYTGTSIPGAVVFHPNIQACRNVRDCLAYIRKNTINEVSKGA
# Protocol: as §1
# [7] = test system: T7, Rep nickase domain of porcine circovirus 2
# T7 sequence (protein, residues 2-116, tag omitted): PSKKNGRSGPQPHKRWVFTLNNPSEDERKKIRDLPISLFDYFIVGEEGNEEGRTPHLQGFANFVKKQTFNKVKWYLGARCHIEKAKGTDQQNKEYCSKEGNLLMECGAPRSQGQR
# Protocol: as §1
# [8] = test system: T8, Rep nickase domain of tomato golden mosaic virus
# T8 sequence (protein, residues 1-124, tag omitted): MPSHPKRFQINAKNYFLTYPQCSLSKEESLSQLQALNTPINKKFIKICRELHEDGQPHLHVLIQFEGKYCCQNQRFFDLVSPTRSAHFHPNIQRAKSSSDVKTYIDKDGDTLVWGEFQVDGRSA
# Protocol: as §1
# [9] = test system: T9, Rep nickase domain of tomato yellow leaf curl virus
# T9 sequence (protein, residues 1-136, tag omitted): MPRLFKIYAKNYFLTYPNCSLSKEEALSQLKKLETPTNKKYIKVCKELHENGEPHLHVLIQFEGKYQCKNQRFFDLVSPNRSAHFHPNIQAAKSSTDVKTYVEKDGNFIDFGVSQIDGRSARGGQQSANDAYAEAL
# Protocol: as §1
# [10] = test system: T10, Rep nickase domain of wheat dwarf virus
# T10 sequence (protein, residues 1-137, tag omitted): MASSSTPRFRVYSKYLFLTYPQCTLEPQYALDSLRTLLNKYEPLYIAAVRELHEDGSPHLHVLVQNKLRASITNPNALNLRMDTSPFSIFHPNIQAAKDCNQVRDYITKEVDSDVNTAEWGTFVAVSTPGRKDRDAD
# Protocol: as §1
Sequence,uncleaved DNA left (log2) [1],uncleaved DNA left (log2) [2],uncleaved DNA left (log2) [3],uncleaved DNA left (log2) [4],uncleaved DNA left (log2) [5],uncleaved DNA left (log2) [6],uncleaved DNA left (log2) [7],uncleaved DNA left (log2) [8],uncleaved DNA left (log2) [9],uncleaved DNA left (log2) [10]
TATTGGA,-1.35,-0.131,-0.236,-0.661,0.108,-1.08,-0.787,0.0582,-0.0671,0.037
TATGAAA,-0.0164,0.18,0.163,-0.566,0.0146,-0.251,-0.0485,0.085,0.0927,0.148
CTAACAG,0.026,0.036,-0.834,-1.58,0.0559,-1.12,0.102,-0.0178,-0.042,-0.016
AGCATAG,0.00749,0.0736,-0.374,-0.329,0.0259,-0.95,0.175,0.0597,0.0751,-0.0122
GGTGTTT,-0.00356,-0.0332,0.469,0.867,-0.0706,1.71,0.0601,-0.0531,0.119,0.118
GCAGATT,0.0707,-0.222,-0.0518,-1.47,-0.0117,0.12,-0.357,-0.138,-0.14,-0.221
GGCGTGC,0.0254,0.0318,0.147,0.618,-0.0842,0.542,0.00716,-0.00608,-0.113,-0.054
GAATTTC,-0.429,-0.0817,-1.85,-1.86,0.00912,0.248,-1.09,-0.269,0.173,-0.347
TATTACG,-0.36,-0.0739,-0.975,-1.11,-0.0897,-1.39,-2.23,-0.135,-0.0433,-0.0846
CCGTCCC,-0.108,-0.0242,0.135,-0.0907,-0.12,0.0662,-0.199,-0.00948,-0.0805,-0.0545
CCCACTA,-0.032,-0.0392,0.00175,-1.42,0.049,-0.509,-0.119,-0.0603,0.0737,0.0246
AACTATT,-3.86,-3.8,-3.34,-3.42,-3.01,-2.13,-4.49,-2.4,-0.0843,-1.69
TACTTGA,-0.059,-0.0364,-0.0705,-0.816,0.0566,-0.638,-0.949,-0.0333,0.099,0.0282
CTATCGT,-0.178,-0.00867,-0.49,-1.07,-0.113,-1.12,-0.269,-0.0306,-0.0565,-0.0237
AAGTTTG,0.144,0.0313,-0.213,-0.32,-0.0368,-0.512,-0.859,0.176,-0.0443,0.0654
TTACGAT,0.136,-0.145,-0.179,-2.11,-0.0939,0.275,-0.187,-0.138,-0.145,-0.192
TGTGCGG,-0.0638,-0.0564,0.296,0.764,-0.0366,1.02,-0.0227,-0.0808,-0.151,-0.0175
ACGTGCA,-0.0709,0.0923,-0.632,-0.732,-0.0578,-0.959,-0.206,-0.0241,0.0381,-0.00879
GCTGCGA,-0.0187,-0.0301,-0.76,0.14,-0.0606,-0.789,0.162,-0.00964,-0.135,-0.131
CAGGCCT,0.0497,-0.052,-0.098,-1.25,-0.00724,0.277,-1.66,0.0318,-0.0376,-0.0491
ACTAAGA,-0.0017,-0.0185,-0.0825,-0.199,0.0878,-0.93,0.197,0.0423,-0.0377,-0.0227
TGCCGTC,-0.0179,-0.184,-0.0274,-0.252,-0.167,-0.489,-0.128,-0.192,-0.175,-0.244
TCGGTGT,0.123,-0.067,0.0064,-0.208,-0.116,-0.456,-0.0405,0.0434,-0.0825,-0.0705
TTCTGAA,0.0386,-0.0118,0.123,-0.108,-0.104,0.112,-0.0938,-0.0111,-0.14,-0.0119
CATTGTA,-0.531,-0.657,-0.748,-1.02,0.041,-1.19,-1.02,0.00414,0.0751,-0.0714
TAACCCC,-0.579,-0.182,-1.36,-2.53,-0.127,-0.685,-1.5,-0.185,-0.0775,-0.479
TGGGGAC,0.0784,0.236,0.977,1.9,-0.0338,2.35,0.224,0.236,0.0501,0.304
CCTTCCC,-0.151,-0.115,-0.0314,-0.475,-0.154,-0.539,-0.189,-0.287,-0.176,-0.154
CTCAGGT,0.173,-0.0126,0.349,1.26,0.213,1.8,0.321,0.0801,-0.145,0.0497
